Among all 52,000 compounds or so, about 1,700 (3.3%) were called active. Cut-off read from the data, not from the text of the source: active = survival mostly below about 52% (no sharp cut-off); inactive = mostly above about 56%. This is one part of the list.

The source of these data is PubChem BioAssay AID463173 (ICCB-Longwood Screening Facility, Harvard Medical School, 2010).

The test system of this experiment is Wild type. The experiment in a line: S. aureus survival, RN4220 and DeltatarO strains – OD600, teichoic acid synthesis inhibitors, primary screen (AID 463173). As to conditions: S. aureus RN4220 wild type/DeltatarO growth, OD600, 18 h, active compounds read low, screened at 18.75 µg/mL (by protocol).
Take `COc1ccc(Cl)cc1S(=O)(=O)N1CCN(C(=O)c2cc(-c3ccc(Br)cc3)n[nH]2)CC1`: the survival is inactive: 60%.
In the case of `Cc1ccc(-n2ncc3c(N4CCN(Cc5ccccc5)CC4)ncnc32)cc1` it was inactive: 131%.
As to `Cc1cccc(C(=O)Nc2ccc(S(=O)(=O)N3CCCCC3c3cccnc3)cc2)c1` (configuration not stated), the survival is inactive: 82%.
With `COc1ccc(OC)c(NS(=O)(=O)c2ccc(Br)s2)c1`, the survival was inactive: 60%.
In the case of `CCOc1ccc(NC(=O)c2oc3ccccc3c2NC(=O)Cc2cccc(C)c2)cc1` it was inactive: 81%; in that of `CCCCC(c1nnnn1C(C)C)N1CCN(c2ccc(F)cc2)CC1` (configuration not stated), inactive: 101%; in that of `CN1CCN(CCC(=O)Nc2ccc(Cl)cc2)CC1`, inactive: 63%.
In the case of `COc1ccc(C(=O)Oc2ccc(C(c3c(C)[nH][nH]c3=O)c3c(C)[nH][nH]c3=O)cc2OC)cc1`, the survival was inactive: 73%.
The figure for `CC(C)c1ccc(NC(=O)CCNS(=O)(=O)c2cccc3nsnc23)cc1` is inactive: 69%.
In the case of `Cc1cccc(NC(=O)CSc2nc(=O)n(Cc3cccnc3)c3c2CCC3)c1`, the survival was inactive: 136%.
Regarding `COc1ccc(NC(=O)c2c(C)oc3ccc(O)c(CN4CCOCC4)c23)cc1`, the survival is inactive: 87%.
Turning to `CCCN1C(C(=O)c2ccccc2)=C(OC(=O)c2ccc(C)cc2)c2ccccc2S1(=O)=O`, the survival is inactive: 74%.
For the compound `Cc1ccc(NC(=O)Cn2c(=O)ccc3cc(S(=O)(=O)N4CCC(C)CC4)ccc32)cc1C`, the survival was inactive: 73%.
Turning to `O=C(COc1ccc(Cl)cc1)NCCc1csc(-c2cccc(F)c2)n1`, the survival is inactive: 125%.
`CCc1nnc(NC(=O)CC2CC3CCC2C3)s1` (configuration not stated): the survival was inactive: 98%.
For `COc1cc(NC(=O)c2ncn(-c3ccccc3)n2)cc(OC)c1`, the survival was inactive: 71%.
In the case of `CC(=O)NC1C(OC2CCCCC2)OC(CO)C(O)C1O` (configuration not stated), the survival was inactive: 109%.
For the compound `CC(=O)c1ccc(NC(=O)CSc2nccn2Cc2ccc3c(c2)OCO3)cc1`, the survival was inactive: 124%.
In the case of `Cc1cc(SCC(=O)NCc2ccc(F)cc2)nc(=O)[nH]1` it was inactive: 68%; in that of `Cn1ncc(C(=O)N2CCN(c3ccccc3F)CC2)c1C1CCN(C(=O)OC(C)(C)C)CC1`, inactive: 74%; in that of `CCCCN(CC)CCCNC(=O)c1cn(CC)c2ccc(S(=O)(=O)N3CCOCC3)cc2c1=O`, inactive: 81%.
Take `CCOc1ccccc1-n1nnc(S(=O)(=O)c2ccc(C)cc2)c1N`: the survival was inactive: 85%.
Turning to `Cc1ccc(NC(=O)c2nc(-c3ccncc3)no2)c(Cl)c1`, the survival was inactive: 118%.
As to `COc1ccc(C2N3CC4(C)CN2CC(c2ccccc2)(C3)C4=O)cc1` (configuration not stated), the survival was inactive: 88%.
Regarding `O=C(COCc1cc(-c2ccco2)on1)Nc1cccc(Cl)c1Cl`, the survival is active: 0%.
As for `Cc1ccc(NC(=O)CSc2nc(-c3ccco3)cc(C(F)(F)F)n2)cc1C`, the survival was inactive: 50%.
The figure for `CCOc1ccc(NC(=O)CN2CCN(c3ccc(Cl)cc3)CC2)cc1` is inactive: 77%.
On to `CC1(C)C/C(=N\O)c2cc3c(nc2C1)CCCC3`, for which the survival was inactive: 103%.
Turning to `COc1ccc(OC)c(CCNC(=O)c2cc3c(=O)n(C)c4ccccc4c3n2C)c1`, the survival is inactive: 60%.
Turning to `COC(=O)c1ccc([C@@H]2Nc3c(C)cc(C)cc3[C@@H]3C=CC[C@@H]32)cc1`, the survival is inactive: 87%.
On to `O=C(c1cc(F)cc(F)c1)N1CCC(c2nc(-c3ccc(S(=O)(=O)N4CCCC4)cc3)no2)CC1`, for which the survival is inactive: 87%.
On to `CCOC(=O)c1cccc(NC(=O)C2CCCN(S(=O)(=O)c3cc(Br)cc4c3N(C(=O)CC)CC4)C2)c1` (configuration not stated), for which the survival was inactive: 98%.
Take `COc1ccc(CN(C(=O)Cc2coc3ccc(C)cc23)C2CCS(=O)(=O)C2)cc1` (configuration not stated): the survival is inactive: 78%.
In the case of `CCc1cccc(NC(=O)CCN2C(=O)c3ccccc3Sc3ncccc32)c1` it was inactive: 75%; in that of `Cc1cc(=O)n2nc(N(C)CC(=O)NCc3ccc(Cl)cc3)sc2n1`, inactive: 85%; in that of `O=C(NCC1CCN(Cc2ccc(F)cc2)CC1)c1cc2ccc3cccnc3c2[nH]1`, inactive: 66%.
In the case of `CCOc1ccc(NC(=O)Cn2c(=O)oc3cc(S(=O)(=O)N4CCC(C)CC4)ccc32)cc1` it was inactive: 124%.
For the compound `COc1cc(Cl)c(C)cc1NC(=O)c1cc2c(s1)-c1c(C)cccc1OC2`, the survival was inactive: 99%.
As to `O=C(Cn1c(=O)nc(-c2ccccc2)c2cc(Cl)ccc21)NCCc1ccccc1`, the survival is inactive: 69%.
For the compound `CCCNC(=O)N1CCC(c2ccc3c(c2)OCO3)CC1`, the survival was inactive: 107%.
For `CCC(=O)N1CCc2cc(S(=O)(=O)NC(CC(C)C)C(=O)NCc3ccc(C)cc3)ccc21` (configuration not stated), the survival was inactive: 108%.
Regarding `Cc1ccc(O)c(-c2n[nH]c3c2C(c2ccccc2F)N(Cc2ccco2)C3=O)c1` (configuration not stated), the survival was active: 11%.
Regarding `CCc1nn(CC(=O)N2CCN(c3cccc(C)c3C)CC2)c(=O)c2cc3sccc3n12`, the survival is inactive: 128%.
On to `COc1cccc(CNC(=O)CCS(=O)(=O)c2ccc3c(c2)CC(C)N3C(=O)C2CC2)c1` (configuration not stated), for which the survival is active: -3%.
As to `Cc1cc2[nH]c(=O)c(=O)[nH]c2cc1S(=O)(=O)Nc1cccc(C(F)(F)F)c1`, the survival was inactive: 89%.
As for `Cc1sc2ncn(CC(=O)N3CCN(c4ccc(F)cc4)CC3)c(=O)c2c1S(=O)(=O)N1CCN(c2ncccn2)CC1`, the survival was inactive: 84%.
Regarding `CCCCN(C)C(=O)Cn1cnc2sc(C)c(S(=O)(=O)N3CCN(c4ccccc4OC)CC3)c2c1=O`, the survival is inactive: 85%.
In the case of `CNC(=O)c1ccc(NC(=O)COc2ccc(-c3nn(C)c(=O)c4ccccc34)cc2)cc1` it was inactive: 84%; in that of `CC(Cc1c[nH]c2ccccc12)NC=O` (configuration not stated), inactive: 119%; in that of `Cc1ccccc1NC(=O)Nc1cccs1`, inactive: 87%.
The figure for `Cc1ccc(OCC(=O)N(Cc2sccc2C)C2CCS(=O)(=O)C2)cc1` (configuration not stated) is inactive: 115%; for `Cc1cc(=O)n2nc(N3CCC(C(=O)NCc4ccc(Cl)cc4)CC3)sc2n1` it is inactive: 109%.
In the case of `Cc1ccc2onc(CC(=O)N3CCN(c4cccc(C)c4C)CC3)c2c1`, the survival was inactive: 74%.
The figure for `CCOC(=O)c1[nH]c2ccccc2c1NC(=O)c1cc(OCC)c(OCC)c(OCC)c1` is inactive: 113%; for `COc1ccc(-c2noc(CSc3nnc(-c4ccncc4)n3-c3ccc(C)c(C)c3)n2)cc1` it is inactive: 74%; for `Clc1ccc(Nc2nc(-c3ccccc3)c3cc(Cl)ccc3n2)cc1` it is inactive: 79%.
Consider `CCc1ccc2[nH]c(=O)c(CN(Cc3ccccc3)Cc3nnnn3C3CCCC3)cc2c1`, for which the survival is inactive: 114%.
As to `CCOc1ccc(NC(=O)Cn2c(CCC(=O)O)ccc2-c2ccc(C)cc2)cc1`, the survival was inactive: 89%.
Regarding `CC(C)(C)c1cc(N=NC(=O)c2ccco2)cc(C(C)(C)C)c1O`, the survival is inactive: 108%.
With `Cc1ccccc1C(=O)Nc1cccc(C(=O)OCc2cc(=O)n3nc(C4CC4)sc3n2)c1`, the survival was inactive: 55%.
Turning to `COc1cc(NC(=O)CC(C)S(=O)(=O)c2cc3c4c(c2)CCN4C(=O)CC3)cc(OC)c1` (configuration not stated), the survival was inactive: 76%.
Consider `CCOc1ccc(C(=O)CSc2nc3c(c(=O)n(C)c(=O)n3C)n2C(C)C)cc1`, for which the survival is inactive: 105%.
`O=C(Cn1nc(-c2ccc3c(c2)OCCO3)ccc1=O)Nc1cccc2cccnc12`: the survival is inactive: 102%.
Turning to `COc1ccc(Cn2c(CO)cnc2SCC(=O)NCc2ccco2)cc1`, the survival is active: -6%.
Turning to `Cc1ccc(C)c(CN2C(=O)c3ccccc3Sc3ccc(C(=O)NCc4ccc5c(c4)OCO5)cc32)c1`, the survival is inactive: 72%.
`Cc1ccc([N+](=O)[O-])cc1S(=O)(=O)N1CCn2cccc2C1c1ccc(F)c(F)c1` (configuration not stated): the survival is inactive: 69%.
For the compound `COc1cc2nc(SCC(=O)Nc3cccc(C)c3)n3nc(-c4ccccc4)nc3c2cc1OC`, the survival was inactive: 82%.
With `COc1ccc(NC(=O)c2c(NC(=O)c3cccc(C)c3)sc3c2CCCC3)cc1`, the survival was inactive: 86%.
With `CCCn1c(N2CCN(C(=O)/C=C/C(=O)O)CC2)nc2ccccc21`, the survival is inactive: 114%.
`CC(=O)c1cccc(NC(=O)c2ccc3nc(C(C)C)oc3c2)c1`: the survival was inactive: 78%.
On to `COc1ccc(-c2nc(Cn3c(SCc4ccc(F)cc4)nc4cccnc43)c(C)o2)cc1`, for which the survival was inactive: 78%.
As to `COc1ccc(CNC(=O)C(OC(=O)c2cc3sccc3n2C(C)C)C(C)C)cc1` (configuration not stated), the survival was inactive: 131%.
As to `CC(C)(CO)NC(=O)C1CC(c2c(F)cccc2Cl)=NO1` (configuration not stated), the survival is inactive: 114%.
In the case of `CCOC(=O)c1cc(-c2ccc(OC)cc2)nn1Cc1ccccc1`, the survival was active: 10%.
On to `Cc1ccc(CSc2nc3c(c(=O)[nH]2)C(c2cccc(F)c2F)CC(=O)N3)cc1` (configuration not stated), for which the survival is inactive: 108%.
In the case of `Cc1ccc(C)c(Nc2nnc(-c3ccc(C)c(S(=O)(=O)N4CCCCC4)c3)c3ccccc23)c1` it was inactive: 114%; in that of `COc1ccc(N2CCN(C(=O)c3nn(-c4ccc(C)cc4)c(=O)n(C)c3=O)CC2)cc1`, inactive: 70%.
As for `CC(C)c1ccc(NC(=O)C(Cc2ccccc2)NS(=O)(=O)c2ccc3c(c2)CCC(=O)N3)cc1` (configuration not stated), the survival is inactive: 91%.
With `COc1cccc(CNC(=O)CN(C)S(=O)(=O)c2ccc3c(c2)c(=O)n(C)c(=O)n3C)c1`, the survival is inactive: 80%.
Consider `Cn1nnnc1SCCNCc1ccccc1Cl`, for which the survival was inactive: 70%.
As to `COc1cc2ncc3c(-c4ccccc4)nn(-c4ccc(C)cc4)c3c2cc1OC`, the survival was inactive: 60%.
In the case of `Cc1ccc(OCC(=O)Nc2ccc3nc(SCC(=O)N(C)c4ccccc4)sc3c2)cc1` it was inactive: 79%.
In the case of `N#C/C(=C\c1ccc(-c2ccc(C(=O)O)cc2)o1)c1nc2ccccc2[nH]1`, the survival is inactive: 110%.
Regarding `COc1ccc(Cl)cc1NC(=O)Cn1cc(S(=O)(=O)Cc2cccc(Cl)c2)c2ccccc21`, the survival was inactive: 92%.
Regarding `CCC1Oc2ccc(C)cc2N(CC(=O)Nc2ccc3c(c2)OCCO3)C1=O` (configuration not stated), the survival was inactive: 104%.
In the case of `CCc1ccccc1Nc1nn2c(=O)c3ccc(C(=O)NCc4ccccc4Cl)cc3nc2s1`, the survival is inactive: 95%.
For the compound `Cn1c(=O)oc2cc(S(=O)(=O)N3CCC(C(=O)N4CCN(c5cccc(Cl)c5)CC4)CC3)ccc21`, the survival was inactive: 140%.
